According to the BET-seq Pho4 binding data (Le et al. 2018):
This is one part of the list. These are noisy estimates, calculated here from bound and input reads.

The sequences below were run against T1, Pho4 (S. cerevisiae) (UniProt P07270) (assay: relative binding free energy (BET-seq); higher = weaker binding). Conditions: reference: library average.
T1 sequence: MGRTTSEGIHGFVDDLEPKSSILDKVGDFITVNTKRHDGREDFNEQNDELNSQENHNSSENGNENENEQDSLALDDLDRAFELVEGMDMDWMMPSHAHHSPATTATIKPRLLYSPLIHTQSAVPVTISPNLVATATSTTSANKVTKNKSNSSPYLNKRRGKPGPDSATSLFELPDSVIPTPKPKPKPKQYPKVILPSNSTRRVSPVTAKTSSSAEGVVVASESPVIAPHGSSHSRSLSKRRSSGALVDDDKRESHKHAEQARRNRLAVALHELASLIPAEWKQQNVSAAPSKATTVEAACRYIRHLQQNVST

| Sequence | relative binding free energy [kcal/mol] |
| --- | --- |
| ATTGTCACGTGATGAA | 0.15 |
| CGTAGCACGTGGGTTG | -0.29 |
| TGGGACACGTGGGTGT | -0.06 |
| TGGGGCACGTGCGTCG | -0.17 |
| CGTTTCACGTGAGGGA | 0.37 |
| TATGTCACGTGGATAA | 0.05 |
| AATCGCACGTGGGTTA | -0.14 |
| TTGTTCACGTGTCTGG | 0.41 |
| GGGATCACGTGACTGG | 0.44 |
| GTGTGCACGTGCAAGT | 0.07 |
| ACGAGCACGTGAGGGG | 0.03 |
| ATAGTCACGTGGTTTA | 0.12 |
| GTAATCACGTGTTGTG | 0.23 |
| GGTATCACGTGTAAAT | 0.19 |
| GTTAACACGTGTAAGT | 0.12 |
| TTGACCACGTGGGGAG | -0.1 |
| TGCTGCACGTGATTGA | 0.27 |
| GGAATCACGTGTATGA | 0.2 |
| ATGGGCACGTGAGATC | 0.11 |
| GGTAGCACGTGATAGG | -0.06 |
| CTTATCACGTGTTTTA | 0.16 |
| CGGGGCACGTGGTCGT | -0.03 |
| AAGGACACGTGGGTTG | -0.03 |

| Sequence | relative binding free energy [kcal/mol] |
| --- | --- |
| TCAATCACGTGGTGTG | 0.11 |
| CGGTGCACGTGTCGGA | 0.1 |
| ATCTGCACGTGGAATG | 0.14 |
| AAGTGCACGTGGTTGG | -0.05 |
| GACGTCACGTGTGAGG | 0.28 |
| TGGTACACGTGGCGGC | 0.1 |
| GGCGGCACGTGAGCGT | 0.11 |
| GTGAACACGTGTGTGT | -0.01 |
| GTCTGCACGTGCTTGG | 0.04 |
| GTTAACACGTGTTAAT | 0.1 |
| TTAAACACGTGTCGTG | -0.06 |
| GGGTACACGTGGATAA | 0.03 |
| TTGGGCACGTGTAGTG | 0 |
| ATATGCACGTGTAGAT | 0.18 |
| TGTATCACGTGTAAAG | -0.01 |
| TGTTGCACGTGAAATG | 0.21 |
| GCGATCACGTGGAGGT | 0.25 |
| GGTCGCACGTGGGTTG | -0.11 |
| TGGGGCACGTGCCTGA | -0.15 |
| GTTTGCACGTGCGCGG | -0.17 |
| GATAACACGTGGGTTG | -0.12 |
| ATTGTCACGTGGGGCC | 0.03 |
| GGCGTCACGTGTAAAT | 0.26 |

| Sequence | relative binding free energy [kcal/mol] |
| --- | --- |
| GGGAGCACGTGTGTGG | -0.06 |
| GAGGGCACGTGTTGAG | 0.08 |
| TTCAACACGTGGATTT | 0.16 |
| CGTATCACGTGGTCGG | -0.02 |
| CTGTTCACGTGGGATT | 0.24 |
| TTGGGCACGTGGGTGG | -0.18 |
| GGGGTCACGTGATGAA | 0.44 |
| GTGCGCACGTGGGATG | -0.08 |
| ATATTCACGTGGCGTG | 0.03 |
| GAGTGCACGTGGACGG | 0.09 |
| AGGTGCACGTGAAGTA | 0.11 |
| TGTGACACGTGCGGGT | -0.04 |
| GAGGGCACGTGAAGGC | 0.13 |
| AGAGACACGTGGTCTG | 0.02 |
| GTTAACACGTGGTACT | 0.03 |
| GGTTCCACGTGTTTTT | 0.16 |
| TGGCACACGTGAGGGC | 0.24 |
| ATGTCCACGTGTTTAG | 0.05 |
| TTAGCCACGTGTGTGA | -0.08 |
| AATGGCACGTGTTCGG | -0.08 |
| AAAGACACGTGGGATG | -0.09 |
| ATATACACGTGCTTTA | 0 |
| TATGGCACGTGTAGGT | -0.09 |

| Sequence | relative binding free energy [kcal/mol] |
| --- | --- |
| AGCGACACGTGTTGTG | 0.07 |
| GTTTACACGTGTGGTG | 0.11 |
| TTGCTCACGTGGGGGT | 0.12 |
| GATGTCACGTGATGGG | 0.28 |
| TGGTTCACGTGTAAGC | 0.27 |
| TTGAGCACGTGGGGGC | -0.21 |
| GTGGTCACGTGGCTCT | 0.05 |
| CGGTTCACGTGGAGGT | 0.27 |
| TTCGACACGTGTTGGA | 0.14 |
| GTGTTCACGTGAGCAG | 0.28 |
| AATGACACGTGTTTGT | 0.02 |
| GAATTCACGTGCTTTT | 0.38 |
| TGGATCACGTGGCTGA | 0.05 |
| ATGATCACGTGGGAAG | 0.12 |
| GCGTGCACGTGTGTTG | 0.09 |
| AGGTGCACGTGGACGG | 0.04 |
| CTGTGCACGTGGCTGG | -0.18 |
| TTGATCACGTGAAGAT | 0.3 |
| TGGAGCACGTGACGTG | 0.14 |
| CGAAACACGTGGTTGT | -0.06 |
| TTGTGCACGTGGGAGA | -0.13 |
| GGGGGCACGTGATCCG | 0.02 |
| GACATCACGTGGTGGT | 0.16 |

| Sequence | relative binding free energy [kcal/mol] |
| --- | --- |
| ATGCTCACGTGTGTCT | 0.22 |
| AGGTGCACGTGGGAAT | -0.13 |
| TAACTCACGTGTGGTC | 0.35 |
| GTTTCCACGTGTGTGT | 0.14 |
| GTAGCCACGTGGTTTT | 0.01 |
| TCGAGCACGTGGTGGC | -0.21 |
| TGATTCACGTGTTTTA | 0.4 |
| TGTTTCACGTGGTCAC | 0.3 |
| TAGGGCACGTGTAAGG | 0.17 |
| TGGTCCACGTGTGTGA | -0.07 |
| AAGTGCACGTGTATAG | -0.01 |
| AATGTCACGTGGTTGA | 0.04 |
| TTTAGCACGTGTGGTG | -0.03 |
| TGGTTCACGTGTGGAT | 0.43 |
| GTTCACACGTGGGGAT | 0.06 |
| GTGGGCACGTGGCAAT | -0.11 |
| GAAGTCACGTGGGAGG | 0.02 |
| TTTATCACGTGCGGTG | 0.2 |
| AGGGGCACGTGCGCGT | -0.14 |
| TTGATCACGTGGATGC | 0.15 |
| AAGTGCACGTGGTTTC | -0.11 |
| AAATTCACGTGATATG | 0.38 |
| ATGGACACGTGGGTAC | -0.14 |
